Reference: the supplement of paper PMC7125110
± gives the standard error. This sample is rich in variants without activity.

B1: glmS ribozyme (parent)
chain: AUAAAAGCGCCAGAACUACAGAAAUGUAGUUGACGAGGAGGAGGUUUAUCGAAUUUUCGGCGGAUGCCUCCAAA

Columns and labels:
Conditions in all cases: with glucosamine-6-phosphate
glucosamine-6-phosphate [1] = variants of: B1; experiment: self-cleavage kobs at 40 uM GlcN6P; higher = faster cleavage; RNA array
Summary of the method: (§1)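 Tiles bearing barcoded ribozyme variants, transcribed in situ by E. coli RNA polymerase on sequenced MiSeq chips, were imaged over ~14 h at 37 °C using a hybridised Cy3 probe. Glucosamine-6-phosphate was supplied at 40 μM to 10 mM in HEPES/KCl/Mg(OAc)2 buffer. kobs came from one- or two-exponential decay fits to normalised per-tile medians, and weighted Michaelis–Menten fits then provided kcat and KM.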

glucosamine-6-phosphate [2] = variants of: B1; experiment: self-cleavage kobs at 640 uM GlcN6P; higher = faster cleavage; RNA array
Summary of the method: as §1

glucosamine-6-phosphate [3] = variants of: B1; experiment: self-cleavage kobs at 160 uM GlcN6P; higher = faster cleavage; RNA array
Summary of the method: as §1

glucosamine-6-phosphate [4] = variants of: B1; experiment: self-cleavage kobs at 2500 uM GlcN6P; higher = faster cleavage; RNA array
Summary of the method: as §1

glucosamine-6-phosphate [5] = variants of: B1; experiment: self-cleavage kobs at 10000 uM GlcN6P; higher = faster cleavage; RNA array
Summary of the method: as §1

Variant | self-cleavage kobs at 40 uM GlcN6P (glucosamine-6-phosphate [1]) [s⁻¹] | self-cleavage kobs at 640 uM GlcN6P (glucosamine-6-phosphate [2]) [s⁻¹] | self-cleavage kobs at 160 uM GlcN6P (glucosamine-6-phosphate [3]) [s⁻¹] | self-cleavage kobs at 2500 uM GlcN6P (glucosamine-6-phosphate [4]) [s⁻¹] | self-cleavage kobs at 10000 uM GlcN6P (glucosamine-6-phosphate [5]) [s⁻¹]
G44U U69G | < 1e-05 | < 1e-05 | < 1e-05 | < 1e-05 | < 1e-05
U45A C67A | 0.000364 ± 5.5e-05 |  |  | 0.00568 ± 0.0022 | 0.00719 ± 0.0014
G43A G44U U46C | < 1e-05 |  |  |  | < 1e-05
G44A A64U | < 1e-05 | < 1e-05 | < 1e-05 | < 1e-05 | < 1e-05
A42G C50A | < 1e-05 |  |  |  | 
A42G C50U | < 1e-05 |  |  | 3.96e-05 ± 1.9e-05 | 8.57e-05 ± 1.3e-05
U45A U56C | 7.22e-05 ± 1e-05 | 0.0014 ± 0.00014 | 0.000234 ± 3.5e-05 | 0.00259 ± 0.00069 | 0.00411 ± 0.00072
A42G G63A | < 1e-05 | < 1e-05 | < 1e-05 | < 1e-05 | < 1e-05
G43U U65G | < 1e-05 |  |  |  | 3.53e-05 ± 1.1e-05
G44U C50U | < 1e-05 | < 1e-05 | < 1e-05 | < 1e-05 | < 1e-05
G44U C50G | < 1e-05 |  |  |  | < 1e-05
U45A C50U U54G | < 1e-05 |  |  |  | 
U45G A53G C61A | < 1e-05 |  |  |  | < 1e-05
A42C G63C | < 1e-05 | < 1e-05 | < 1e-05 | < 1e-05 | < 1e-05
G43C A53C | < 1e-05 | < 1e-05 | < 1e-05 | < 1e-05 | 
G44U U47A | < 1e-05 |  |  |  | 
G44A U49G | < 1e-05 | < 1e-05 |  |  | 
G41U U57G | < 1e-05 | < 1e-05 | < 1e-05 |  | 
A42G U69A | 0.000758 ± 0.00012 |  |  |  | 
G43A U49A C61U G62A G66A | < 1e-05 |  |  |  | < 1e-05
A42C C67U | < 1e-05 |  | < 1e-05 |  | 
G43U C68A | 0.00235 ± 0.00036 | 0.0194 ± 0.0032 | 0.00333 ± 0.00054 | 0.0175 ± 0.005 | 0.0761 ± 0.024
G43U C68G | 0.000533 ± 9.6e-05 |  |  |  | 
A42C U55C | < 1e-05 |  |  |  | 

Variant | self-cleavage kobs at 40 uM GlcN6P (glucosamine-6-phosphate [1]) [s⁻¹] | self-cleavage kobs at 640 uM GlcN6P (glucosamine-6-phosphate [2]) [s⁻¹] | self-cleavage kobs at 160 uM GlcN6P (glucosamine-6-phosphate [3]) [s⁻¹] | self-cleavage kobs at 2500 uM GlcN6P (glucosamine-6-phosphate [4]) [s⁻¹] | self-cleavage kobs at 10000 uM GlcN6P (glucosamine-6-phosphate [5]) [s⁻¹]
A42C U55A | < 1e-05 |  |  |  | 
A42G A48U C71G | < 1e-05 |  |  |  | 
G41U C61U U65A | < 1e-05 | < 1e-05 |  | < 1e-05 | < 1e-05
G43A U46A U54G | < 1e-05 |  |  |  | 
A42U G60U C70G | < 1e-05 | < 1e-05 | < 1e-05 |  | < 1e-05
A42G C70G | 4.1e-05 ± 7.7e-06 |  |  |  | 
G44A U47A C71A | < 1e-05 | < 1e-05 |  | < 1e-05 | < 1e-05
A42U C58U | < 1e-05 | < 1e-05 | < 1e-05 | < 1e-05 | 
G43U U49G | < 1e-05 | < 1e-05 | < 1e-05 | < 1e-05 | < 1e-05
A42G G44C | < 1e-05 |  | < 1e-05 |  | 
A42U G43C G59C | < 1e-05 | < 1e-05 |  | < 1e-05 | 
U45C C68G | < 1e-05 |  |  |  | 
G43U C71A | < 1e-05 | < 1e-05 | < 1e-05 |  | < 1e-05
U45A G62C | < 1e-05 |  |  | < 1e-05 | 
G43U C61U C68U | < 1e-05 | < 1e-05 |  |  | < 1e-05
G43C U54A | < 1e-05 | < 1e-05 | < 1e-05 | < 1e-05 | < 1e-05
G43C U54G | < 1e-05 | < 1e-05 | < 1e-05 |  | 
G44A U69C | < 1e-05 | < 1e-05 |  |  | < 1e-05
G43U C61G U65C | < 1e-05 |  |  |  | < 1e-05
A42G G62U | < 1e-05 | < 1e-05 | < 1e-05 | < 1e-05 | < 1e-05
G44C C61U | < 1e-05 | < 1e-05 | < 1e-05 | < 1e-05 | < 1e-05
G44C U49A | < 1e-05 | < 1e-05 |  | < 1e-05 | < 1e-05
G44C U65A | < 1e-05 | < 1e-05 | < 1e-05 |  | 
U45A A64C C70G | < 1e-05 |  |  | < 1e-05 | 

Variant | self-cleavage kobs at 40 uM GlcN6P (glucosamine-6-phosphate [1]) [s⁻¹] | self-cleavage kobs at 640 uM GlcN6P (glucosamine-6-phosphate [2]) [s⁻¹] | self-cleavage kobs at 160 uM GlcN6P (glucosamine-6-phosphate [3]) [s⁻¹] | self-cleavage kobs at 2500 uM GlcN6P (glucosamine-6-phosphate [4]) [s⁻¹] | self-cleavage kobs at 10000 uM GlcN6P (glucosamine-6-phosphate [5]) [s⁻¹]
G43U C70G | < 1e-05 | < 1e-05 | < 1e-05 | < 1e-05 | < 1e-05
G43A U46G | < 1e-05 |  |  |  | 
G43A U46C | < 1e-05 |  |  | < 1e-05 | 
G41U G51C | < 1e-05 | < 1e-05 | < 1e-05 |  | < 1e-05
G44U C70G C71A | < 1e-05 |  |  |  | < 1e-05
A42G U55G G63U | < 1e-05 |  |  |  | < 1e-05
G44U G59U U65G | < 1e-05 |  |  |  | 
G41C U57C | < 1e-05 |  | < 1e-05 | < 1e-05 | < 1e-05
G43U U46A | < 1e-05 |  | < 1e-05 |  | 
A42C A53C C68U | < 1e-05 | < 1e-05 |  | < 1e-05 | 
G43C U47C | < 1e-05 | < 1e-05 | < 1e-05 | < 1e-05 | 
G44U A64C | < 1e-05 | < 1e-05 | < 1e-05 | < 1e-05 | 
G43A A64C | < 1e-05 | < 1e-05 |  |  | 
A42C A64C | < 1e-05 | < 1e-05 | < 1e-05 |  | < 1e-05
G43U A52G C61U G66A C67G | < 1e-05 | < 1e-05 |  |  | 
A42C C71A | < 1e-05 |  | < 1e-05 | < 1e-05 | < 1e-05
A42C C71U | < 1e-05 | < 1e-05 | < 1e-05 |  | 
G41U A42G | 4.79e-05 ± 9.1e-06 | 0.000285 ± 6.2e-05 | 9.47e-05 ± 2e-05 | 0.000816 ± 0.00012 | 0.000843 ± 0.00012
G44C U55G | < 1e-05 |  | < 1e-05 | 5.66e-05 ± 2.2e-05 | 4.43e-05 ± 2.1e-05
A42C G66C | < 1e-05 | < 1e-05 | < 1e-05 | < 1e-05 | < 1e-05
A42C G59C | < 1e-05 |  |  |  | 
G44A G59U | < 1e-05 | < 1e-05 | < 1e-05 | < 1e-05 | < 1e-05
G41U U57C C61U | < 1e-05 |  |  |  | 
G41U A64U | < 1e-05 | < 1e-05 |  |  | 

Variant | self-cleavage kobs at 40 uM GlcN6P (glucosamine-6-phosphate [1]) [s⁻¹] | self-cleavage kobs at 640 uM GlcN6P (glucosamine-6-phosphate [2]) [s⁻¹] | self-cleavage kobs at 160 uM GlcN6P (glucosamine-6-phosphate [3]) [s⁻¹] | self-cleavage kobs at 2500 uM GlcN6P (glucosamine-6-phosphate [4]) [s⁻¹] | self-cleavage kobs at 10000 uM GlcN6P (glucosamine-6-phosphate [5]) [s⁻¹]
G41U A64C | < 1e-05 | < 1e-05 |  | < 1e-05 | < 1e-05
A42U G44A U65G | < 1e-05 |  |  |  | 
U45G A64U C68G C71U | < 1e-05 |  |  |  | 
A42G U54A | 0.000967 ± 0.00013 | 0.029 ± 0.0057 | 0.00396 ± 0.0011 |  | 0.0172 ± 0.004
A42C A52U C61U | < 1e-05 | < 1e-05 |  |  | 
G41U G51U G63U C68G | < 1e-05 |  |  |  | < 1e-05
G43U C61G | < 1e-05 | < 1e-05 |  |  | 
A42U U55A G63C | < 1e-05 | < 1e-05 | < 1e-05 |  | < 1e-05
G44U A52G A53U | < 1e-05 |  |  |  | < 1e-05
G44U A52G | < 1e-05 |  |  |  | 
A42C C70U | < 1e-05 |  |  |  | 
A42C U49G | < 1e-05 |  |  |  | < 1e-05
A42G G62C C68U C71A | < 1e-05 |  |  |  | < 1e-05
G44U C58A | < 1e-05 | < 1e-05 | < 1e-05 | < 1e-05 | < 1e-05
U45G C50U A53U | < 1e-05 |  |  |  | 
A42C C58G | < 1e-05 |  |  | < 1e-05 | < 1e-05
U45C U57C | < 1e-05 |  | < 1e-05 |  | 
U45C G60U A64G C71G | < 1e-05 | < 1e-05 |  | < 1e-05 | < 1e-05
G43A G59C C70U | < 1e-05 |  |  |  | 
A42G A52U C70A | < 1e-05 |  | < 1e-05 |  | 
G41U G43U G44U U56C | < 1e-05 | < 1e-05 |  |  | 
A42C U55A C71A | < 1e-05 |  |  |  | < 1e-05
G44A G63A C71U | < 1e-05 |  |  |  | < 1e-05
